Assay results published in PubChem BioAssay AID1508624 (National Center for Advancing Translational Sciences (NCATS), 2021).
Screen size: about 48,000 compounds; about 120 (0.25%) were called active. Inconclusive results (about 4%) are left out. Calls come from the whole dose curve; as a rule, active = well fitted activation curve with a large enough effect; inconclusive = small, poorly fitted or top-dose-only effect, or another doubt; inactive = no such curve, though single readings can be large or run the other way. The list shows a part of the results.

assay: Primary qHTS for Identification of Small Molecule Activators of Huntingtin-Antisense Promoter Activity; details: HEK293 HTT-AS promoter firefly luciferase reporter, 24 h; series mostly up to 57.5 µM; activity change, positive = activation: at the top concentration; note: nearly all actives have a fitted effect of over 55% in size
In short: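 Quantitative HTS used concentration series of up to 57.5 uM final on HEK293 luciferase reporter cells, 24 h at 37 degrees C. Readout was Dual-Glo firefly luminescence.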

Activity change, positive = activation, inactive:
CCc1ccc(CNC(=O)c2ccc3c(c2)c(C)c(C)n3Cc2ccccc2)cc1 -35.1%, CCOC(=O)N1CCc2c(sc(NCc3cc(OC)ccc3OC)c2C(=O)Nc2cc(OC)ccc2OC)C1 -34.4%, COC(=O)c1cc(-c2ccc(Cl)cc2)c2c(=O)[nH]c(=O)n(C)c2n1 -7.13%, CCOCCCNC(=O)C1CCN(c2nc3ccc(C)cc3[nH]2)CC1 1.01%, COc1ccc(N2CCN(C(=O)Cn3cnc4sc(C)c(S(=O)(=O)N5CCCCC5)c4c3=O)CC2)cc1 13.5%, Cc1ccc(NC(=O)CCn2cccn2)c(C)c1 5.42%, Cc1ccc(S(=O)(=O)NC(=O)NC2CCCCCCC2)cc1 -3.41%, CCc1nn(CC(=O)N2CCN(c3cccc(C)c3)C(C)C2)c(=O)c2cc3sccc3n12 (stereo not given) -13%, CCOCCCNC(=O)C(c1ccc(C)cc1)N(Cc1ccc2c(c1)OCO2)C(=O)c1ccccc1O (stereo not given) 1.34%, O=C(CSc1nnc2scc(-c3ccc(Cl)cc3)n12)Nc1ccc(F)cc1 -5.14%, COc1ccccc1C(=O)NC1(C(F)(F)F)NC(=O)N(CCc2ccccc2)C1=O (stereo not given) -15.9%, COC(=O)[C@H]1[C@H]2C[C@@H]3c4[nH]c5cc(OC)ccc5c4CCN3C[C@H]2C[C@@H](OC(=O)c2cc(OC)c(OC)c(OC)c2)[C@@H]1OC -17.3%, Cc1ccc(Nc2c(-c3cccnc3)nc3ccc(C)cn23)cc1 -4.56%, COc1cccc(C2=CC(c3ccccc3F)n3ncc(C(=O)Nc4ccc(F)cc4)c3N2)c1 (stereo not given) -31.4%, COc1cccc(NC(=O)CSc2cc(C)c3ccccc3n2)c1 -14.3%, COc1ccccc1-c1nc(CNC(=O)NC2CCCCC2)c(C)o1 -7.26%, Cc1ccc(NC(=O)CCn2nc(C)c3c(C)n(-c4ccccc4)nc3c2=O)cc1Cl -13.7%, O=C(Cn1ncc2ccsc2c1=O)N1CCN(c2ccc(Cl)cc2)CC1 -38.1%, CC1CCCCN1Cc1nc2c(c(=O)n(C)c(=O)n2C)n1Cc1ccc(Br)cc1 (stereo not given) 15.7%, COc1ccc(NC(=O)c2c(-c3ccc(C)cc3)nnc3ccccc23)cc1OC 6%, Cc1ccc2c(Sc3ccc(Cl)cc3)c(C(=O)N3CCCCC3)[nH]c2c1 -16.8%, CC(C)C[C@H](NC(=O)[C@@H](O)[C@H](N)Cc1ccccc1)C(=O)O -16.4%, CC(C)c1ccc(NC(=O)c2cn(C3CCCC3)c(=O)c3c2c2ccccc2n3C)cc1 -21.6%, COCCn1c(C)cc(O)c(C(c2ccccc2)N2CCN(c3ccccc3F)CC2)c1=O (stereo not given) 10.2%, C=CCc1ccc(O)c(-c2ccc(O)c(CC=C)c2)c1 -14.3%, COc1cc([C@@H]2c3cc4c(cc3[C@H](O)[C@H]3COC(=O)[C@H]23)OCO4)cc(OC)c1OC, NC(CO)(CO)CCc1ccc(Sc2cccc(OCc3ccccc3)c2)cc1Cl -29.3%, O=C(O)CN(CCOCCOCCN(CC(=O)O)CC(=O)O)CC(=O)O 1.32% [at 0.74 µM, percent change from vehicle, -100% = no light], CC(Nc1ccc(-c2nc(-c3cccnc3)no2)cc1[N+](=O)[O-])c1ccccc1 (stereo not given) -0.11%, CCS(=O)(=O)c1ccc(C(=O)N2CCN(c3nc4c(OC)ccc(C)c4s3)CC2)cc1 -36.5%, CCN(CC)CCCC(C)Nc1c2ccc(Cl)cc2nc2ccc(OC)cc12 (stereo not given) -1.79%, CCOC(=O)c1ccc(NC(=O)CCCc2nc(-c3ccccc3Cl)no2)cc1 -18.3%, CCOc1ccc(S(=O)(=O)NCC(c2ccco2)S(=O)(=O)c2cccs2)cc1 (stereo not given) -10.3%, Cc1ccc(NC(=O)c2cnn3c(C(F)F)cc(-c4ccccc4)nc23)c(C)c1 -9.86%, COc1ccc(OC)c(NC(=O)C2CCCN(S(=O)(=O)c3c(C)nn(C)c3C)C2)c1 (stereo not given) -7.9%, Cc1ccc(NC(=O)Nc2nnc(N(CC(C)C)CC(C)C)s2)cc1Cl -7.59%, CCc1ccc(CNC(=O)Cc2ccc(NC(=O)N3CCSc4ncccc43)cc2)cc1 -21.7%, COc1cccc(N2CCN(C(=O)C(CCSC)NS(=O)(=O)c3ccc4c(c3)oc(=O)n4C)CC2)c1 (stereo not given) -12%, CCOC(=O)CSc1nc2ccc(NC(=O)c3ccc(C)cc3)cc2s1 8.47%, O=C(O)c1ccc2c(c1)ncn2-c1ccc(F)c(F)c1 -9.78%, Cc1ccc(CNC(=O)Cn2nc(C)n3cccc3c2=O)cc1 -0.551%, Cc1ccc(-n2ncc(C(=O)N3CCN(c4cccc(C)c4)C(C)C3)c2C2CCN(C(=O)OC(C)(C)C)CC2)cc1 (stereo not given) -12.4%, Cc1nn(CCCC(=O)NCc2ccc(F)cc2)c(=O)c2c1sc1ccccc12 8.15%, CCOc1ccc(N2CC(c3nc4ccccc4n3Cc3cccc(Cl)c3)CC2=O)cc1 (stereo not given) -24%, CCOc1ccc2nc(NC(=O)c3cc(=O)c4ccc(C)cc4o3)sc2c1 -2.68%, CCN1CCSc2ccc(C(=O)NC(C)c3ccccc3)cc21 (stereo not given) -14%, O=C(NCc1ccc(Cl)cc1)c1cc(S(=O)(=O)N2CCCCC2)c[nH]1 -18.1%, Cc1cc(C)cc(C(=O)Nc2ccc(-c3nc4ncccc4o3)cc2)c1 3.52%, Cc1c2cnn(CC(=O)N3CCN(c4ccc(F)cc4)CC3)c(=O)c2c(C)n1Cc1ccc(F)cc1 -23.2%, COc1c(C)cc(S(=O)(=O)NCCc2c(C)[nH]c3ccccc23)c(C)c1C -14.2%, CCOC(=O)c1cc(-c2ccccc2)n(-c2cccc(C(=O)Nc3ccc(F)c(F)c3)c2)c1C -33.2%, COc1ccccc1CNC(=O)CCn1c(=O)c2ccccc2n(CC(=O)Nc2cccc(Cl)c2)c1=O -36.9%, CC(=O)N1CCOc2cc(S(=O)(=O)Nc3cccc(C(F)(F)F)c3)c(Cl)cc21 -32%, CCOC(=O)c1ccccc1NC(=O)C(=O)Nc1ccc2nc3n(c(=O)c2c1)CCCCC3 -12.9%, CCc1cccc(-n2c(C)nc3c(cnn3-c3ccc(Cl)cc3)c2=O)c1 -53.5%, COc1ccc(NC(=O)C2CCN(S(=O)(=O)c3ccc4[nH]c(=O)ccc4c3)CC2)c(OC)c1 -6.72%, Cc1cn2c(=O)cc(COc3cccc(NC(=O)c4ccccc4C)c3)nc2s1 -25.2%, COc1ccc(OC)c(NC(=O)Cc2coc3ccc(C(C)C)cc23)c1 -29%, CCOC(=O)c1[nH]c(C)c(CCC(=O)NCc2ccccc2)c1C -6.2%, CCOC(=O)c1c(-c2ccccc2)oc2ccc(N(C(C)=O)S(=O)(=O)c3cc(C)ccc3C)cc12 -6.74%
